Reference: PubChem BioAssay AID651820 (National Center for Advancing Translational Sciences (NCATS), 2012)
The whole screen tested about 340,000 compounds, of which about 12,000 (3.5%) were called active. The inconclusive results got no clear call from the source; some entries with a clear call stand among them for comparison. Calls come from the whole dose curve; as a rule, active = well fitted inhibition curve with a large enough effect; inconclusive = small, poorly fitted or top-dose-only effect, or another doubt; inactive = no such curve, though single readings can be large or run the other way. No potency is given beside an inconclusive call; the fits are too rough.

Test: qHTS Assay for Inhibitors of Hepatitis C Virus (HCV)
Details: Huh7.5.1 HCVcc-Cre (HCVcc is cell-culture hepatitis C virus) infection, luciferase reporter, 44 h; series mostly up to 41.8 µM
How it was run: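 1,000 cells/well; 4 h culture; + compound; + HCVcc-Cre (~0.5 moi); 44 h; luciferase substrate, RT 15 min; read 15 sec.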
Potency is the fitted concentration of half-maximal effect; tags give direction and shape of the fitted curve.

**Q.** Which Potency does the source give for `Cn1cc(CC(=O)N2CCN(c3ccc(Cl)cc3)CC2)c2ccccc21` here?
**A.** inconclusive [inhibitor, single point]

**Q.** For `CCCN(CCC)C(=O)CSc1nc2ccccc2c(=O)n1CC1COc2ccccc2O1` (stereo unspecified), which Potency is on record?
**A.** inconclusive [inhibitor, partial curve]

**Q.** Which Potency does the source give for `CCn1c(/C=C/c2ccc(O)cc2)nc2ccccc2c1=O` here?
**A.** inconclusive [inhibitor, single point]

**Q.** With `COc1cc(/C=C2\SC(=O)N(CCNC(=O)c3sc4cc(F)ccc4c3Cl)C2=O)cc(OC)c1OC` as the compound, how does the Potency read?
**A.** inconclusive [inhibitor, partial curve]

**Q.** Which Potency does the source give for `CCOC(=O)N1CCN(C(=O)C2CCN(C(=O)c3ccccc3C)CC2)CC1` here?
**A.** inconclusive [inhibitor, single point]

**Q.** Which Potency does the source give for `O=C(c1cn(Cc2ccccc2)nc1-c1ccccc1)N1CCN(c2ccccn2)CC1` here?
**A.** inconclusive [inhibitor, partial curve]

**Q.** With `CC1(C)Cc2cccc(Oc3ccc(S(=O)(=O)N4CCCC4)cn3)c2O1` as the compound, how does the Potency read?
**A.** inconclusive [inhibitor, partial curve, poor fit]

**Q.** With `O=C(c1ccco1)N1CCN(Cc2nnnn2CC2CCCO2)CC1` (stereo unspecified) as the compound, how does the Potency read?
**A.** inactive

**Q.** Which Potency does the source give for `COc1ccccc1NC(=O)CCN1CC(C)OC(C)C1` (stereo unspecified) here?
**A.** inconclusive [inhibitor, single point]

**Q.** Which Potency does the source give for `Cc1cccc(OCCSCc2nc3ccccc3[nH]2)c1` here?
**A.** active: 6.31 µM

**Q.** With `COc1cccc(-n2nnnc2SCC(=O)NCc2ccco2)c1` as the compound, how does the Potency read?
**A.** inactive

**Q.** Which Potency does the source give for `CC1c2cc3c(cc2CCN1C(=O)c1cccc(F)c1)OCCCO3` (stereo unspecified) here?
**A.** inconclusive [inhibitor, partial curve]

**Q.** For `C=CC[n+]1c(-c2ccc(OCC)cc2)csc1NNC(=O)Nc1ccccc1`, which Potency is on record?
**A.** active: 7.08 µM

**Q.** Which Potency does the source give for `CC1CCN(S(=O)(=O)c2ccc(C(=O)Nc3nnc(C4=COCCO4)o3)cc2)CC1` here?
**A.** inconclusive [inhibitor, single point]

**Q.** With `COc1ccc2c3c(c(=O)oc2c1OCC(=O)C(C)(C)C)CCCC3` as the compound, how does the Potency read?
**A.** inconclusive [inhibitor, full curve]

**Q.** With `CCCOc1ccc(C2NC(=S)NC(c3ccccc3)=C2C(=O)Nc2ccc(C)cc2)cc1OC` (stereo unspecified) as the compound, how does the Potency read?
**A.** inconclusive [inhibitor, single point]

**Q.** Which Potency does the source give for `NC(=O)CC(NC(=O)Cc1ccc(Br)cc1)c1ccc(NCC2CC2)c([N+](=O)[O-])c1` (stereo unspecified) here?
**A.** inactive

**Q.** With `CCN1C(=O)[C@@H]2Cc3c([nH]c4ccccc34)C(c3cc(OC)c(OC)c(OC)c3)N2C1=S` (stereo partly specified) as the compound, how does the Potency read?
**A.** inconclusive [inhibitor, single point]

**Q.** With `O=C(Nc1ccc(OCc2ccccc2)cc1)c1cccnc1` as the compound, how does the Potency read?
**A.** inactive

**Q.** For `O=C(NCc1ccc2c(c1)OCO2)Nc1ccc([N+](=O)[O-])cc1`, which Potency is on record?
**A.** inconclusive [inhibitor, partial curve]

**Q.** For `COc1ccc(N(C(=O)c2ccc(C)cc2)S(=O)(=O)c2cccs2)cc1`, which Potency is on record?
**A.** inconclusive [inhibitor, single point]

**Q.** Which Potency does the source give for `COc1cc(NC(=O)c2ccnnc2)cc(C(=O)Nc2cccc(C(F)(F)F)c2)c1` here?
**A.** inconclusive [inhibitor, full curve]

**Q.** Which Potency does the source give for `CC(C)(C)c1csc(NNC(=O)c2ccc(Br)cc2)n1` here?
**A.** inconclusive [inhibitor, single point]

**Q.** Which Potency does the source give for `CCOC(=O)N1CCN(S(=O)(=O)/C=C/c2ccccc2)CC1` here?
**A.** inactive

**Q.** For `CCOc1ccc(Br)cc1/C(C)=N\NC1=NCCN1`, which Potency is on record?
**A.** active: 4.47 µM

**Q.** With `CC1CCCC(NC(=O)c2ccc3c(=O)n(CC4CCCO4)c(=O)[nH]c3c2)C1C` (stereo unspecified) as the compound, how does the Potency read?
**A.** inactive

**Q.** Which Potency does the source give for `O=C(c1ccccc1)N1N=C(c2ccccc2)CC1c1ccc2nccnc2c1` (stereo unspecified) here?
**A.** inactive

**Q.** For `CCc1nnc(N/N=C\c2ccc(OC(C)=O)c(OC)c2)n1N`, which Potency is on record?
**A.** inactive

**Q.** For `COc1cccc(/C=N/Nc2ncnc3scc(-c4ccccc4)c23)c1O`, which Potency is on record?
**A.** inconclusive [inhibitor, full curve]

**Q.** Which Potency does the source give for `O=C(Nc1ccc(N=Nc2ccccc2)cc1)c1ccccc1Cl` here?
**A.** inconclusive [inhibitor, full curve]

**Q.** With `CCCCNc1ncnc2c1cnn2-c1ccc(C)cc1C` as the compound, how does the Potency read?
**A.** inconclusive [inhibitor, single point]

**Q.** For `Cn1cc(C(=O)C(F)(F)F)c2ccccc21`, which Potency is on record?
**A.** inactive

**Q.** With `Cc1ccc(NS(=O)(=O)c2ccc(C(=O)N3CCCN(C)CC3)cc2)cc1` as the compound, how does the Potency read?
**A.** inconclusive [inhibitor, partial curve]

**Q.** With `CCCc1ccc(NS(=O)(=O)c2c(C)oc(C)c2C(=O)OC)cc1` as the compound, how does the Potency read?
**A.** inconclusive [inhibitor, single point]

**Q.** Which Potency does the source give for `Cc1ccc2c(c1)N(CC(=O)N1CCOCC1)C(=O)C(C)O2` (stereo unspecified) here?
**A.** inactive

**Q.** With `CCn1nc(C)cc1C(=O)N1CCCC(C(=O)c2ccccc2SC)C1` (stereo unspecified) as the compound, how does the Potency read?
**A.** inconclusive [inhibitor, partial curve]

**Q.** Which Potency does the source give for `COC(=O)c1cc(Nc2cc(C)c3ccc(O)cc3n2)cc(C(=O)OC)c1` here?
**A.** inactive

**Q.** Which Potency does the source give for `Cc1cc(OC(C)C(=O)NCc2cccnc2)c2c3c(c(=O)oc2c1)CCC3` (stereo unspecified) here?
**A.** inconclusive [inhibitor, single point]

**Q.** For `Cn1ccnc1C(O)c1cc(C(C)(C)C)c(O)c(C(C)(C)C)c1` (stereo unspecified), which Potency is on record?
**A.** inactive

**Q.** For `CC(=O)c1cc2c(cc1NC(=O)Cn1nc(-c3ccc(C)cc3)ccc1=O)OCO2`, which Potency is on record?
**A.** active: 11.2 µM

**Q.** For `COc1ccc(C2(c3ccc(OC)cc3)NC(=O)N(CC(=O)N(C)C3CCC(C)CC3)C2=O)cc1` (stereo unspecified), which Potency is on record?
**A.** inconclusive [inhibitor, single point]

**Q.** With `COc1ccccc1N1CCN(C(=O)C2CCN(S(=O)(=O)c3ccc4c(c3)CC(C)N4C(=O)C3CC3)CC2)CC1` (stereo unspecified) as the compound, how does the Potency read?
**A.** inconclusive [inhibitor, single point]

**Q.** For `COc1ccc(NC(=O)CN2CCCC(C)C2)c([N+](=O)[O-])c1` (stereo unspecified), which Potency is on record?
**A.** inconclusive [inhibitor, single point]

**Q.** Which Potency does the source give for `NS(=O)(=O)c1ccc(Nc2nc(-c3ccc4ccccc4c3)cs2)cc1` here?
**A.** inconclusive [inhibitor, partial curve]

**Q.** With `CC(=O)Nc1ccc(S(=O)(=O)NCc2nc(-c3ccc(C)cc3)no2)cc1` as the compound, how does the Potency read?
**A.** inactive

**Q.** Which Potency does the source give for `Cc1ccc(C(C(=O)NCC2CCCO2)N(C(=O)c2snc(C(N)=O)c2N)c2ccccc2F)o1` (stereo unspecified) here?
**A.** inactive

**Q.** Which Potency does the source give for `O=C1CSC(c2cccc(O)c2)N1Cc1ccccc1` (stereo unspecified) here?
**A.** inconclusive [inhibitor, single point]

**Q.** With `Cc1ccc(NC(=O)C2CCCN(S(=O)(=O)c3ccc4[nH]c(=O)ccc4c3)C2)c(C)c1` (stereo unspecified) as the compound, how does the Potency read?
**A.** inactive

**Q.** With `COc1ccc(C(=O)Nc2scc(-c3ccc(Cl)cc3Cl)c2C(N)=O)cc1` as the compound, how does the Potency read?
**A.** inconclusive [inhibitor, partial curve]

**Q.** For `COc1ccc(-c2cc(-c3ccccc3O)[nH]n2)cc1`, which Potency is on record?
**A.** inactive

**Q.** With `COc1ccc(N2CC(C(=O)N(C)CC(=O)Nc3ccc(Cl)c(C(F)(F)F)c3)CC2=O)c(OC)c1` (stereo unspecified) as the compound, how does the Potency read?
**A.** inconclusive [inhibitor, full curve]

**Q.** For `O=C(Cn1nc(-c2ccc(Cl)cc2)c2ccccc2c1=O)NN1CCOCC1`, which Potency is on record?
**A.** inactive

**Q.** For `CC1C(=O)C(C)(C)C(=O)OC1c1ccc([N+](=O)[O-])cc1` (stereo unspecified), which Potency is on record?
**A.** inactive

**Q.** With `CCN(CC)CCNC(=O)c1cc(Nc2ccc(OC)c(OC)c2)nc2ccccc12` as the compound, how does the Potency read?
**A.** inconclusive [inhibitor, partial curve]

**Q.** Which Potency does the source give for `CCC(=O)Nc1nc2ccc(NC(=O)c3cc(OC)c(OC)c(OC)c3)cc2s1` here?
**A.** inconclusive [inhibitor, full curve, poor fit]

**Q.** With `O=C(Nc1ccc(Sc2ccc(Br)cc2)cc1)c1ccco1` as the compound, how does the Potency read?
**A.** inconclusive [inhibitor, single point]

**Q.** With `O=C(CCl)N(c1ccccc1)C1CCS(=O)(=O)C1` (stereo unspecified) as the compound, how does the Potency read?
**A.** active: 22.4 µM

**Q.** Which Potency does the source give for `COc1ccc(C(CNC(=O)c2ccc(NS(=O)(=O)c3ccc(F)c(C)c3)cc2)N2CCCC2)cc1` (stereo unspecified) here?
**A.** inconclusive [inhibitor, single point]

**Q.** Which Potency does the source give for `CCN1C[C@]2(COC)CC[C@H](OC)[C@@]34C5C[C@H]6C(=O)C5[C@](O)(C[C@H]6OC)[C@@](O)(C(OC)C23)[C@@H]14` (stereo partly specified) here?
**A.** inactive

**Q.** Which Potency does the source give for `CN(C(=O)COC(=O)c1nc(Cl)ccc1Cl)C1CCS(=O)(=O)C1` (stereo unspecified) here?
**A.** inactive

**Q.** With `Nc1nncn1C(=O)c1cccs1` as the compound, how does the Potency read?
**A.** inactive

**Q.** With `CN(Cc1ccccc1)C1CCNCC1` as the compound, how does the Potency read?
**A.** inconclusive [inhibitor, partial curve, poor fit]

**Q.** With `Clc1cccc(N2CCN(CCNc3nc4ccccc4n4cnnc34)CC2)c1` as the compound, how does the Potency read?
**A.** inconclusive [inhibitor, single point]

**Q.** For `Cc1c(C(=O)Nc2cccc(C(F)(F)F)c2)oc2ccc(S(=O)(=O)N3CCOCC3)cc12`, which Potency is on record?
**A.** inconclusive [inhibitor, full curve]

**Q.** For `O=c1c2c(-c3ccccc3)csc2nc2n1CCC2`, which Potency is on record?
**A.** inconclusive [inhibitor, single point]

**Q.** For `O=S(=O)(Nc1cccc(-c2cn3ccsc3n2)c1)c1ccc(F)cc1`, which Potency is on record?
**A.** inconclusive [inhibitor, single point]

**Q.** Which Potency does the source give for `COc1ccc(NC(=O)c2ccc(OC(=S)N(C)c3ccc(OC)cc3)cc2)cc1` here?
**A.** inactive

**Q.** For `CCCCn1c(O)c(/C(CC)=N/N2CCCCC2c2cccnc2)c(=O)[nH]c1=S` (stereo unspecified), which Potency is on record?
**A.** inactive

**Q.** Which Potency does the source give for `CC(=O)N(Cc1cccc(Br)c1)c1ccc(N2CCOCC2)c(Cl)c1` here?
**A.** inconclusive [inhibitor, single point]

**Q.** With `COc1ccccc1CN(C)C(=O)C(c1ccccc1)c1ccccc1` as the compound, how does the Potency read?
**A.** inconclusive [inhibitor, single point]

**Q.** Which Potency does the source give for `COC(=O)C1(Cc2cc(-c3ccc([N+](=O)[O-])cc3)no2)CCN(C(=O)OC(C)(C)C)CC1` here?
**A.** inconclusive [inhibitor, partial curve]
